# Where “and” joins values, the source holds several entries; their conditions need not be identical. Identical values can stand only once. In all, about 370,000 compounds went through this assay and about 500 (0.14%) were called active. This list was built around the results that the source calls inconclusive (neither active nor inactive); the mix of calls is not that of the screen. Calls come from the whole dose curve; as a rule, active = well fitted activation curve with a large enough effect; inconclusive = small, poorly fitted or top-dose-only effect; inactive = no such curve, though single readings can be large or run the other way. Where the call is inconclusive, the potency comes from a doubtful curve fit.
# Assay: qHTS of alpha-syn Inhibitors; note: nearly all actives have a fitted effect of over 65% in size; for growth rescue (activation): % of control where 0% means no effect
# Conditions: Yeast expressing alpha-synuclein, BacTiter-Glo, 24 h; Potency: growth rescue unless noted; growth rescue (activation): at 46.1 µM (top of the series) unless noted
# Summary of the method: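 Galactose-induced alpha-syn yeast (OD600=0.02, raffinose-pregrown) + pinned cpd, 24 hr, 30 deg C; growth by BacTiter-Glo luminescence. Growth restoration scores as activation.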
# Potency is the fitted concentration of half-maximal effect; tags give direction and shape of the fitted curve.
Compound,Potency,growth rescue (activation)
COc1ccc(C(O)c2nc(-c3ccc(OC)nc3)cs2)cc1 (centres undefined),"inconclusive: 15.8 µM [activator, single point]",
CCc1ccc2c(c1)Sc1ccccc1CC2N1CCN(C)CC1 (centres undefined),,inactive: -0.0421%
CCc1nc2ccc(C(=O)Nc3cc(-c4ccccc4)ccc3OC)cn2c1N(C)CCC(C)C,,inactive: -54.9%
CC1(C(=O)NCc2cccs2)Cc2c(-c3ccc4c(c3)OCO4)ccnc2O1 (centres undefined),"inconclusive: 17.8 µM [activator, single point]",
CCCCSc1nc(C)cc(SCC(=O)N/N=C/c2cccc(OC)c2O)n1,"inconclusive: 28.2 µM [activator, single point]",
Nc1c(Cl)ncnc1N/N=C/c1ccc2ccccc2n1,active: 6.31 µM,
COc1ccc(CNC(=O)c2ccc(-c3ccccc3)cc2)cc1OC,,inactive: -12.4%
CC(C)Cn1cc(NC(=O)N2CCN(c3ccccc3F)CC2)c2ccccc2c1=O,"inconclusive: 14.1 µM [activator, single point]",
COc1ccccc1NC(=O)CSc1ncn(-c2ccccc2)n1,,inactive: 6.31%
CCOc1ccc(OCC)c(S(=O)(=O)n2ccnc2C)c1,"inconclusive: 4.47 µM [activator, partial curve]",
OC(c1ccccc1)c1nc(-c2cnc3ccccc3c2)cs1 (centres undefined),"inconclusive: 31.6 µM [activator, single point]",
COc1ccc(NC(=O)c2ccc(NC(=O)CSc3nc(N)cc(=O)[nH]3)cc2)cc1,"inconclusive: 22.4 µM [activator, single point]",
C=CCc1cccc(/C=N/NC(=O)c2ccccc2OC)c1O,,inactive: 2.2%
CNc1cncc(-c2cccc(NS(C)(=O)=O)c2)n1,,inactive: -5.15%
Cc1ccc(Cc2c(-c3ccc(F)cc3)nc3c(C)cc(Br)cn23)cc1,,inactive: 2.83%
Cc1c(CCNC=O)cc(C)c2c3c(oc12)CCCC3,,inactive: 16.9%
NC(N)=NC(N)=Nc1ccc(O)cc1,,inactive: 3.92%
Cc1cc(NC(=O)/C=C\C(=O)O)c([N+](=O)[O-])cc1C,,inactive: 3.43%
CSc1nc(C)cc(SCCO)n1,"inconclusive: 35.5 µM [activator, single point]",
O=C(c1ccco1)c1nnn(Cc2ccccc2)c1-c1ccccc1,"inconclusive: 15.8 µM [activator, single point]",
Cc1nc2nc(C)n(CCN3CCOCC3)c(=O)c2c(-c2cccc([N+](=O)[O-])c2)c1C(=O)CCCCCCCCCCN1CCC(c2ccccc2)(c2ccccc2)CC1,"inconclusive: 28.2 µM [activator, single point]",
Cn1cc(CN2CCC(C(=O)NC(c3ccc(F)cc3)c3ccc4ccccc4n3)CC2)c2ccccc21 (centres undefined),,inactive: -16.7%

Compound,Potency,growth rescue (activation)
CCOc1ccccc1N1CCN(C(=O)/C=C/c2cccc([N+](=O)[O-])c2)CC1,,inactive: 13.1%
CCOc1ccccc1NC(=O)CSc1nncc2ccccc12,"inconclusive: 20 µM [activator, single point]",
COc1ccccc1CNc1nc(Nc2cccc(-c3cnco3)c2)c2sccc2n1,"inconclusive: 5.62 µM [activator, single point]",
CCOc1cccc(NC(=O)C2CC(=O)N(CC)C(=Nc3ccc(F)cc3)S2)c1 (centres undefined),"inconclusive: 35.5 µM [activator, single point]",
CCCCCCCCN1C(=O)[C@H](CC(=O)NCCCOC)C[C@@]2(C(=O)OC)CC(C)(C)CC=C12,"inconclusive: 31.6 µM [activator, single point]",
CCC(C)n1c(SC(C)C#N)nc2ccccc2c1=O (centres undefined),"inconclusive: 31.6 µM [activator, single point] and inconclusive: 35.5 µM [activator, single point]",
CN1CCN(c2ccc(-c3cccc(NC(=O)COc4ccccc4)c3)nn2)CC1,,inactive: -4.86%
Cn1ccc2c(-c3ccc(CO)cc3)cc3c(c21)C1CCC3O1 (centres undefined),"inconclusive: 35.5 µM [activator, single point]",
CCN1C(=O)C(CC(=O)Nc2ccc(OC)cc2)N(CCc2ccc(OC)cc2)C1=S (centres undefined),"inconclusive: 15.8 µM [activator, single point]",
Cc1cc(NC(=O)C23CC4CC(C2)CC(n2cnc([N+](=O)[O-])n2)(C4)C3)no1,"inconclusive: 3.98 µM [activator, single point]",
CC1(C(=O)Nc2ccc3ccccc3c2)CCC(=O)N1CCOc1ccccc1 (centres undefined),"inconclusive: 5.62 µM [activator, single point]",
O=C(Cn1cc2c(n1)CCCC2)NCc1cccc(Cl)c1,"inconclusive: 35.5 µM [activator, single point]",
Cc1[nH]c2ccccc2c1SCCNC(=O)c1ccc(Br)o1,"inconclusive: 35.5 µM [activator, single point]",
CCN1C(=O)C(CC(=O)Nc2ccc(OC)cc2)N(CCc2ccccc2F)C1=S (centres undefined),"inconclusive: 31.6 µM [activator, single point]",
NC(=O)c1cc[n+](CC2=C(C(=O)O)N3C(=O)[C@@H](NC(=O)[C@@H](c4ccccc4)S(=O)(=O)[O-])[C@H]3SC2)cc1,"inconclusive: 56.2 µM [activator, single point]",
Nc1nc2cc(Cl)ccc2cc1C(=O)NCCCc1ccccc1,"inconclusive: 5.62 µM [activator, single point]",
Cc1ccc(-c2csc(N3CCC(C(N)=O)(N4CCCCC4)CC3)n2)cc1,"inconclusive: 31.6 µM [activator, single point]",
CC(Sc1nc2ccccc2s1)C(=O)N(C)Cc1ccccc1 (centres undefined),"inconclusive: 12.6 µM [activator, single point]",
Cc1ccc(C(=O)N/N=C/c2cc(Br)ccc2O)cn1,"inconclusive: 11.2 µM [activator, single point]",
COc1ccc(C2/C(=C(/O)c3ccc(Br)cc3)C(=O)C(=O)N2C)cc1OC (centres undefined),,inactive: -4.42%
CN1C(=O)/C(=N/OC(=O)c2ccccc2Br)c2ccccc21,"inconclusive: 12.6 µM [activator, partial curve]",
COc1ccc(NC(=O)CN2CCCCCC2)cc1OC,"inconclusive: 5.62 µM [activator, single point]",

# — PubChem BioAssay AID652106 (National Center for Advancing Translational Sciences (NCATS), 2013)
